These are yes or no findings as the source states them, for the method shown. For some assays here: Binding seen in cells or lysates may run through a third protein. Some results given as binding are weak or reduced against the parent protein; the word gives no strength. For some assays here: Tags and fused reporters may be left off the sequences shown.

Protein sequences, listed by entry. Tags and fused reporters are not part of them. Lines headed by an entry give the natural chain unless they say otherwise; changes in a name come on top. Chains listed by the source or under a name are the forms on record and can include a tag or linker. Residues count along the entry.
UniProt A0MES8: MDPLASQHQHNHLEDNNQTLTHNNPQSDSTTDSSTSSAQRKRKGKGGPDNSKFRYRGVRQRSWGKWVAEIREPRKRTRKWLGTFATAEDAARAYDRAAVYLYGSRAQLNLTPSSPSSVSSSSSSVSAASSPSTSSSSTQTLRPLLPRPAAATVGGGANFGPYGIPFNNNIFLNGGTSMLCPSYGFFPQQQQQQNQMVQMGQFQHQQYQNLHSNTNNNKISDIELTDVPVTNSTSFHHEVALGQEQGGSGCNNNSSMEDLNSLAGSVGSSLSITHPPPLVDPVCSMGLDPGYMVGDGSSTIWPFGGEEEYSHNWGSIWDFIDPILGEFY
ABI4 (amino acids 1–160) fused with the GAL4 DNA-binding domain (BD): residues 1-160 of A0MES8

In test [1] the target is ABI4 (amino acids 1–160) fused with the GAL4 DNA-binding domain (BD) (Arabidopsis) (UniProt A0MES8). Kind of test: two-hybrid; ABI4 (1-160)-BD and 20 MAPKs-AD co-transformed into Y2H Gold; grown on SD-Leu-Trp, α-galactosidase assay.
The target of test [2] is T1, 14-3-3ω in pGBK (two-hybrid bait) (Arabidopsis) (UniProt Q01525).
T1 sequence: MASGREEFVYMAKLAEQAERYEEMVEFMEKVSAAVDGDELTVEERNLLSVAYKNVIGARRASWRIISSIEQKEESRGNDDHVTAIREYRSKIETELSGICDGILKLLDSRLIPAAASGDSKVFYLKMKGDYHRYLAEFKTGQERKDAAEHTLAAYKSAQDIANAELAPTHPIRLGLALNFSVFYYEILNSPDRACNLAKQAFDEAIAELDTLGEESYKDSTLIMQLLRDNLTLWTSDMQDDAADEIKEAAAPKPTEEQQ
The test can be described thus: two-hybrid; 14-3-3ω or 14-3-3Φ in pGBK and MAPK pathway components in pGAD co-transformed into Y2H Gold; SD-Leu-Trp-His with 40 μg ml^-1 X-α-gal.

The next test concerns the target ABI4-CLuc (Arabidopsis) (UniProt A0MES8). The test can be described thus: split reporter; luciferase complementation imaging: ABI4-CLuc and MPK3/MPK6-NLuc co-infiltrated into N. benthamiana leaves.
The target of test [3] is T2, 14-3-3Φ in pGBK (two-hybrid bait) (Arabidopsis), P46077.
T2 chain: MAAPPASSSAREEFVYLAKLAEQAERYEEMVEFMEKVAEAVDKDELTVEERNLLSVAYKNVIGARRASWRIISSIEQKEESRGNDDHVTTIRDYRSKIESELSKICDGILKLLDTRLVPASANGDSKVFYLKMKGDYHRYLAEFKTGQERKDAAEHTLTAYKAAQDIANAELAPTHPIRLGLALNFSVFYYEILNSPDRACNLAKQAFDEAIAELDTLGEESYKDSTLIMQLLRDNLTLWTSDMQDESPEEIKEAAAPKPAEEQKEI
Kind of test: two-hybrid; 14-3-3ω or 14-3-3Φ in pGBK and MAPK pathway components in pGAD co-transformed into Y2H Gold; SD-Leu-Trp-His with 40 μg ml^-1 X-α-gal. Conditions: remark: other sources report otherwise.

The target in test [4] is T3, 14-3-3ω-nYFP (Arabidopsis) (UniProt Q01525).
T3 sequence: T1 sequence
Kind of test: split reporter; BiFC: 14-3-3ω-nYFP and cYFP fusions co-transformed into Arabidopsis protoplasts; confocal microscopy 12-18 h after transformation.

In test [5] the target is T4, 14-3-3Φ in pGBK (two-hybrid bait) (Arabidopsis) (UniProt P46077).
T4 sequence: T2 chain
The test can be described thus: two-hybrid; 14-3-3ω or 14-3-3Φ in pGBK and MAPK pathway components in pGAD co-transformed into Y2H Gold; SD-Leu-Trp-His with 40 μg ml^-1 X-α-gal.

B1: MPK3 fused with the GAL4 activation domain (AD) (enzyme, UniProt Q39023 1-370)
chain: MNTGGGQYTDFPAVETHGGQFISYDIFGSLFEITSKYRPPIIPIGRGAYGIVCSVLDTETNELVAMKKIANAFDNHMDAKRTLREIKLLRHLDHENIIAIRDVVPPPLRRQFSDVYISTELMDTDLHQIIRSNQSLSEEHCQYFLYQLLRGLKYIHSANIIHRDLKPSNLLLNANCDLKICDFGLARPTSENDFMTEYVVTRWYRAPELLLNSSDYTAAIDVWSVGCIFMELMNRKPLFPGKDHVHQMRLLTELLGTPTESDLGFTHNEDAKRYIRQLPNFPRQPLAKLFSHVNPMAIDLVDRMLTFDPNRRITVEQALNHQYLAKLHDPNDEPICQKPFSFEFEQQPLDEEQIKEMIYQEAIALNPTYG
For B1, the binding result in test [1] and in test [2] was “binds” throughout.

B2: MPK3-NLuc (enzyme, UniProt Q39023 1-370)
chain: B1 chain
For B2, the binding entry in the test with ABI4-CLuc (Arabidopsis) is “binds”.

B3: MPK3 fused with the GAL4 activation domain (AD), Q39023 1-370 (enzyme)
chain: B1 chain
With B3, the binding entry in test [3] is on record as “no binding”.

B4: MPK3-cYFP (enzyme, UniProt Q39023 1-370)
chain: B1 chain
Regarding B4, the binding result in test [4] is listed as “binds”.

B5: pGAD-MEKK1 (enzyme, UniProt Q39008 1-608)
chain: MDRILARMKKSTGRRGGDKNITPVRRLERRDAARNINYDAASCSSSSAEDLSVSTSSLMTRSLEFPEPTSFRIGGGVGEMDRIYRSLGVSGPDDLAISFDAWEACKKRSSSDVVNRFKSFDLDKVRDQDLSEEGPSGVVVGSDSMNHKVQGQDLSEAGPSGGIVTELSEIGNLITPVDRLVADGVVENRRVMERTPTIVKSKGYLVPNNVVAVGVGVGGGIKGLRPPVLKPPPAMKRPPIDHRGSSWDFLTHFAPSETVKRPSSSSSSSEDGCDEEEGKEEEAEAEEMGARFIQLGDTADETCSFTTNEGDSSSTVSNTSPIYPDGGAIITSWQKGQLLGRGSFGSVYEGISGDGDFFAVKEVSLLDQGSQAQECIQQLEGEIKLLSQLQHQNIVRYRGTAKDGSNLYIFLELVTQGSLLKLYQRYQLRDSVVSLYTRQILDGLKYLHDKGFIHRDIKCANILVDANGAVKLADFGLAKVSKFNDIKSCKGTPFWMAPEVINRKDSDGYGSPADIWSLGCTVLEMCTGQIPYSDLEPVQALFRIGRGTLPEVPDTLSLDARLFILKCLKVNPEERPTAAELLNHPFVRRPLPSVGSGGSGSASPLLRR
Turning to B5, the binding result in test [2] is recorded as “no binding”.

B6: pGAD-MKK9 (enzyme, UniProt Q9FX43 1-310)
chain: MALVRERRQLNLRLPLPPISDRRFSTSSSSATTTTVAGCNGISACDLEKLNVLGCGNGGIVYKVRHKTTSEIYALKTVNGDMDPIFTRQLMREMEILRRTDSPYVVKCHGIFEKPVVGEVSILMEYMDGGTLESLRGGVTEQKLAGFAKQILKGLSYLHALKIVHRDIKPANLLLNSKNEVKIADFGVSKILVRSLDSCNSYVGTCAYMSPERFDSESSGGSSDIYAGDIWSFGLMMLELLVGHFPLLPPGQRPDWATLMCAVCFGEPPRAPEGCSEEFRSFVECCLRKDSSKRWTAPQLLAHPFLREDL
Turning to B6, the binding entry in test [2] was “no binding”.

B7: MKK5-cYFP (enzyme, UniProt Q8RXG3 1-348)
chain: MKPIQSPSGVASPMKNRLRKRPDLSLPLPHRDVALAVPLPLPPPSSSSSAPASSSAISTNISAAKSLSELERVNRIGSGAGGTVYKVIHTPTSRPFALKVIYGNHEDTVRRQICREIEILRSVDHPNVVKCHDMFDHNGEIQVLLEFMDQGSLEGAHIWQEQELADLSRQILSGLAYLHRRHIVHRDIKPSNLLINSAKNVKIADFGVSRILAQTMDPCNSSVGTIAYMSPERINTDLNHGRYDGYAGDVWSLGVSILEFYLGRFPFAVSRQGDWASLMCAICMSQPPEAPATASQEFRHFVSCCLQSDPPKRWSAQQLLQHPFILKATGGPNLRQMLPPPRPLPSAS
On to B7, for which the binding entry in test [4] is “binds”.

B8: pGAD-MKK5 (enzyme, UniProt Q8RXG3 1-348)
chain: B7 chain
With B8, the binding result in test [5] is “no binding”; in test [2], “binds”.

B9: MPK6 fused with the GAL4 activation domain (AD), Q39026 1-395 (enzyme)
chain: MDGGSGQPAADTEMTEAPGGFPAAAPSPQMPGIENIPATLSHGGRFIQYNIFGNIFEVTAKYKPPIMPIGKGAYGIVCSAMNSETNESVAIKKIANAFDNKIDAKRTLREIKLLRHMDHENIVAIRDIIPPPLRNAFNDVYIAYELMDTDLHQIIRSNQALSEEHCQYFLYQILRGLKYIHSANVLHRDLKPSNLLLNANCDLKICDFGLARVTSESDFMTEYVVTRWYRAPELLLNSSDYTAAIDVWSVGCIFMELMDRKPLFPGRDHVHQLRLLMELIGTPSEEELEFLNENAKRYIRQLPPYPRQSITDKFPTVHPLAIDLIEKMLTFDPRRRITVLDALAHPYLNSLHDISDEPECTIPFNFDFENHALSEEQMKELIYREALAFNPEYQQ
Regarding B9, the binding result in test [3] is “no binding”.

B10: MKK4-cYFP (enzyme, UniProt O80397 1-366)
chain: MRPIQSPPGVSVPVKSRPRRRPDLTLPLPQRDVSLAVPLPLPPTSGGSGGSSGSAPSSGGSASSTNTNSSIEAKNYSDLVRGNRIGSGAGGTVYKVIHRPSSRLYALKVIYGNHEETVRRQICREIEILRDVNHPNVVKCHEMFDQNGEIQVLLEFMDKGSLEGAHVWKEQQLADLSRQILSGLAYLHSRHIVHRDIKPSNLLINSAKNVKIADFGVSRILAQTMDPCNSSVGTIAYMSPERINTDLNQGKYDGYAGDIWSLGVSILEFYLGRFPFPVSRQGDWASLMCAICMSQPPEAPATASPEFRHFISCCLQREPGKRRSAMQLLQHPFILRASPSQNRSPQNLHQLLPPPRPLSSSSSPTT
With B10, the binding result in test [4] was “binds”.

B11: pGAD-MKK4 (enzyme, UniProt O80397 1-366)
chain: B10 chain
On to B11, for which the binding entry in test [5] is reported as “no binding”; in test [2], “binds”.

The values are drawn from article PMC4942575.
